# The source gives no read counts; variants with many changes may rest on few reads.
# B1: LINE1-full (parent)
# chain: UACGUAGGUGGUUUUCCCCUGAUAGUGCUAAGGGGGCCUGGAAGUUUGGACUGGGCAGAGCUCAACACAGCGUGGCAAAGUGGCUGUGGCUAGACUGCCUCUCUGGAUUCCUCGUCACUCAGCAGGGCAUCUCUGAGAGAAAUGCC
# Variants of: B1
# Test: self-cleavage, relative activity (ratio to wild type); higher = more cleavage; in vitro, sequencing; the parent is a self-cleaving ribozyme
row,Variant,self-cleavage
1,A64G A79G A124U,0
2,A67G U85A U134A,0
3,U62A U87C A140G,0.13
4,C66U U102C U132C A142G,0.02
5,A65G U85A U108C A136G,0
6,A67G U85A U102C,0.09
7,A65G A140G C145U,0.07
8,A65G U73A U91G,0.06
9,A67G A78U A129U,0.55
10,U62C G97A U143C,0.01
11,A67G G93U U102C A140G,0.04
12,A64G U130C U134C,0
13,A64U C84U A136G,0.11
14,A67C U130C A142G,0.32
15,A65G C68U A79G U85C,0.07
16,A64G C110A A138G,0.17
17,U62C A136G A141U,0.01
18,U62C U115C A141G,0.88
19,A67G G82U U134C U143C,0.28
20,A64U U112A A136G,0.53
21,A67G U108C G127A,0.97
22,U62C U73C U104C,0.27
23,U62C U85C C113A,0.1
24,A64U A79G G82U A92U C120U A138G,0.09

row,Variant,self-cleavage
1,C66U U100C U132C A142G,0.06
2,A64G U115C U119C,0.42
3,U62C U91C U109C U119A,0
4,A65G U112A C146U,0.21
5,C66U A67U C76U U115C,0.02
6,U62A U119C A136C,0.04
7,A64U A138G A142G,0.54
8,U62G A77G U104C A141G,0
9,U62C A78G G88A A142G,0.08
10,A65G U85C U100C U109C G125U U143C,0
11,A64G A77G G80A A107U U130C,0.66
12,U62C A65G A129U A141G,0.14
13,A64U G88A U96C,0.04
14,U62C C111U U112C A142G,0.14
15,A65G U132C A138G,0.05
16,U62A U87C U134C,0
17,A64U A79U U87C C145G,0.1
18,U62C U81C C103A,0.08
19,A65U A78G U109A U115C,0.08
20,C63U U91C A124G,0.15
21,U62C A79G U109C A117C A141G,0
22,A67G U115C U143A,0.25
23,A64U U96C U119C,0.04
24,U62C U87A A92U U130C,0.08

row,Variant,self-cleavage
1,A64C U96C U143C,0.11
2,A67G U73A A92U C131U,0.33
3,A67G A79G A140U,0.61
4,A64U U81C A138G,0.65
5,A64U A79C U96G,0.17
6,A64U G88A U115C C131A U132C,0.04
7,U62C U130G A142G,0
8,A67G G72A A141G,0.31
9,A65U U73C A121G,0.3
10,U62G A79G A138G,0.38
11,A64G U102C A136G C145G,0
12,U62C A117U A138U,0.07
13,A67U A69G C90U,0.06
14,A64U A69U U102C U112C U115A A138G A142G,0.04
15,A65U U100A U115C,0.16
16,A67U U81C U119A U143A,0.19
17,A65G A77G A129U C145U,0
18,U62C C98A U104C A142G,0.04
19,A67G A78G C90U,0.04
20,A64G A107G G125U,0.23
21,A65G A117U G122U A140G,0.04
22,A64U G72C U115A A117G A136U A140C,0.3
23,A65G A77G C113A,0.1
24,A67C C110U C113U A124C,0.05

row,Variant,self-cleavage
1,U62A U130A C146U,0.04
2,A64G A65G U112C U115A A140G,0.92
3,U62C A64G A136G,0
4,C63G A79U U100C A138G,0.15
5,A64G A136U A140G,0.23
6,U62C A64C G75A,0.05
7,A67U A69G A129G,0
8,A65G U109A G127A,0.05
9,A64U A67G G86A A142G,0.17
10,U62C U91C A141G,0
11,A64U A65C G72A,0.03
12,C63U A78G A142G,0.2
13,A64G U100C C116A,0.25
14,A64U A77G C84U,0.12
15,A67G A121U A138U,0.36
16,U62C A107G U130C,0.15
17,A65G A78U U132A,0.03
18,A64C U91A A136G,0.08
19,A64G A78G U87C,0
20,A67U A69G C98A A124G A141G,0
21,A64G C90U U119A A142G,0.03
22,A64U U85G U132C,0.15
23,A64G U96C U132C A138G,0.4
24,A64U A142G U143A,0.47

row,Variant,self-cleavage
1,A64G A69G A124U,0.26
2,U62C A69G U73A A124G A141G,0
3,A64G A69G U132C U143C,0
4,A67U U96A U112C,0.03
5,A65G G83A A94U,0.03
6,U62C G89U U96C A142G,0.03
7,A67G G82A C99U,0.09
8,A67G U73C U143A,0.5
9,A67C G114A A136G,0.06
10,U62C A65G A140U,0.03
11,A65U A121U G126A,0.11
12,A65G A67G A141G,0.27
13,U62C A94G U104C,0
14,A64G G88A A136G,0.02
15,A64U U112A U132C,0.59
16,A64G A69G C71U A121C,0
17,A65G U109A U130C,0.11
18,A64G U81A U100C U112C A121C,1.06
19,A64G U96C U102C,0
20,A64G U73A A107G,0.11
21,A65G G72U A141G,0.04
22,A65G C120U A129U U132C,0.05
23,A64G U73C A129U,0.5
24,U62C G75A U115A,0.04

row,Variant,self-cleavage
1,U62C A65C U115C,0
2,C63U A69U U112A,0.04
3,A64G U104G C116U A129U A142G,0.26
4,U62A U96C A140G,0.07
5,U62C U96G U115C A140U,0
6,A67C G74U U81C G105A A121U U132C A141G,0.28
7,A67G A79G C101U,0.48
8,A64G A121U C133A,0.36
9,C63U U85C U130C U134A,0.08
10,A67G A79G A141G,0.75
11,A64C G75A U81A,0.34
12,A64G G93A G125U,0.03
13,C66U U96C C123U,0.01
14,A64C U108C G122A,0.38
15,A64U U102C A140G,0.59
16,A65G A69G A136U,0
17,U62C U87A A124G,0.07
18,A67U U73A U132C A136U,0.02
19,A64U U96C A140G,0.1
20,U62C A121C G139U,0.07
21,U62C U81C U130C U143C,0
22,C63U U104C U115C,0.64
23,U62C A107G G127A,0
24,U62C U112A A141G,0.07

row,Variant,self-cleavage
1,U62C U73A G125A,0.03
2,U62C A121G A138U,0.05
3,A65G U73A U100G,0
4,U62C A117U U119C U143A,0.06
5,A64U U87G U104C G127A,0.05
6,A64U U96C A141G,0.02
7,U62C A117C A141G,0.04
8,A67G A78G U87C,2.51
9,A64U G106U U109C U130C,0.28
10,U62C A65U A79G,0.16
11,A64G U102A U108C,0.97
12,A64U A78G A136G,0.34
13,U62A U104C C116U U134A A138G,0.03
14,A64U A94G U102A,0.11
15,U62C U100A A124U,0.18
16,A64U A124U A142G,0.11
17,U62C U109A G137A,0.08
18,A64G A136U A142G,0.14
19,U62C U81A A129G A141G,0.05
20,A64U C71G A141G A142G,0.16
21,U62C A77U A117U A138U,0.03
22,U62C U134C A136G,0.09
23,A64G U108G U112C A138G,0
